# Among all 310,000 compounds or so, about 2,200 (0.71%) showed an effect of 50% or more. Effects have a minus sign here. Some of the results follow.
# Biological target: human ether-à-go-go-related gene (hERG) potassium channel (human, UniProt Q12809)
# Assay: primary screen, population patch clamp on CHO cells stably expressing hERG
# human ether-à-go-go-related gene (hERG) potassium channel, sequence (Q12809 whole entry, looked up): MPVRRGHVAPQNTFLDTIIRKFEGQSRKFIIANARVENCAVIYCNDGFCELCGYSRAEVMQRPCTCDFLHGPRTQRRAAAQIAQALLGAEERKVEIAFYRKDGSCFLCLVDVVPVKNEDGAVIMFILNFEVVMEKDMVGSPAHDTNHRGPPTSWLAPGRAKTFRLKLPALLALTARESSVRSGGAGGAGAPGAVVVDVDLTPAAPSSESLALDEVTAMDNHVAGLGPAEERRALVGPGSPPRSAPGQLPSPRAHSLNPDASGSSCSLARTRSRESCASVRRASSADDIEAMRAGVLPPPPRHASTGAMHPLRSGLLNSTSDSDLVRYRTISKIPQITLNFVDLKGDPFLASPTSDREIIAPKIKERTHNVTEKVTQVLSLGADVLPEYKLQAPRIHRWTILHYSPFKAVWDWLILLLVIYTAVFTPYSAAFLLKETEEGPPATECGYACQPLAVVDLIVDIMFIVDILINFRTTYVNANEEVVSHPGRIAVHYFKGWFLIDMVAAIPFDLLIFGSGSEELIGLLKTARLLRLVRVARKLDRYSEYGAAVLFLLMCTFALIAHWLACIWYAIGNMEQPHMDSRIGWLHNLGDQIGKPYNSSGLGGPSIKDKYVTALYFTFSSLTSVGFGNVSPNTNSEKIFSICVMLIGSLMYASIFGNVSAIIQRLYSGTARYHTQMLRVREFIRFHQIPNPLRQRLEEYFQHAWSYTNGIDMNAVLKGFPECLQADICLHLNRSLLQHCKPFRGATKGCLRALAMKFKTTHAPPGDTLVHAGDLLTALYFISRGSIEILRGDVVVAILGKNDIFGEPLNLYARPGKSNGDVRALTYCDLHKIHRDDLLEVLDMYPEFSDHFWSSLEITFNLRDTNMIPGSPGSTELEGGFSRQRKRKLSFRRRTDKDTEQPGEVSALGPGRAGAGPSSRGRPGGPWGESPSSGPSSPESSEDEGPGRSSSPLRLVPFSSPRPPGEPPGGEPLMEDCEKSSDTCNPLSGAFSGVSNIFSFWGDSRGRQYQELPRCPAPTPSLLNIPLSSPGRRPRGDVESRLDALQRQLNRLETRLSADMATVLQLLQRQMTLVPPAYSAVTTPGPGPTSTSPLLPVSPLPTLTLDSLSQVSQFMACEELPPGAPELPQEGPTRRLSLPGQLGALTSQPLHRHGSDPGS
row,Compound,"hERG current change (%, negative = inhibition) at 1uM"
1,COc1ccccc1CNC(=O)[C@@H](NC(=O)C1CCN(C(=O)[C@@H]2CCCN2C(=O)OC(C)(C)C)CC1)C(C)C,13%
2,O=C(NCCC1=CCCCC1)Nc1ccc2nsnc2c1,4.7%
3,COc1ccc2c(-c3ccccc3)cc(=S)[nH]c2c1,12%
4,CCNC(=S)NNC(=O)CSc1nc2ccccc2[nH]1,12.6%
5,O=C(NCCCN1CCOCC1)c1cc(Cl)ccc1Cl,9.18%
6,CCn1c(SCC(=O)Nc2ccc(S(N)(=O)=O)cc2)nnc1-c1cccc(OC)c1,4.73%
7,C/C(=N/NC(=O)c1ccc(Br)o1)c1ccncc1,17.9%
8,Cc1cccc(NC(=O)C2CCCN2C(=O)OCC(C)C)c1C (centres unmarked),9.95%
9,COc1cc(NC(=O)COC(=O)[C@@H]2CCCN2S(=O)(=O)c2ccc(Cl)cc2)cc(OC)c1OC,7.26%
10,CCOC(=O)N1CCN(C(=O)COc2ccc(Cl)cc2C)CC1,4.04%
11,O=C(Cc1ccccc1)Nn1c(O)c(/C=C2\C=Nc3ccccc32)sc1=S,7.77%
12,CCN1CCN(CC(=O)c2ccc(C)cc2)CC1,14.6%
13,CCCCCCn1c(SCCOC)nc2c1c(=O)[nH]c(=O)n2C,-21.6%
14,CC(C)OC(=O)C1=C(N)N2C(=O)CSC2=C(C(=O)OC(C)C)C1,1.7%
15,CC1(C)C(C=C(Cl)Cl)C1C(=O)N(Cc1cccc(Cl)c1)C1CCS(=O)(=O)C1 (centres unmarked),9.09%
16,COCc1cc(C)nc(SCC(=O)N2CCC(C)CC2)c1C#N,12.3%
17,N#C/C(=C\c1ccc(Cl)cc1)C(=O)NC1CC1,5.51%
18,Cc1cccc(N2C(=N)SCC2=O)c1C,8.9%
19,Cc1cccc(C(=O)NNC(=O)CSc2nnc(C(C)C)n2C)c1,6.45%
20,COc1ccc(NC(=S)NCCc2ccccc2)c(C)c1,13.8%
21,COc1cccc(-c2nc(-c3ccccn3)no2)c1OC,6.56%
22,CCOc1ccccc1/C=N/Nc1nc2c(N)ncnc2n1[C@H]1O[C@@H](CO)[C@H](O)[C@@H]1O,-3.68%

row,Compound,"hERG current change (%, negative = inhibition) at 1uM"
1,O=C(NCc1ccc(F)c(F)c1)C1CCC(=O)N(CC2CCCCC2)C1 (centres unmarked),2.21%
2,O=C(Cc1ccc([N+](=O)[O-])cc1)N1CCN=C1SCc1ccccc1,7.11%
3,CC(C)N1CCN(Cc2cnc(-c3ccccc3)s2)CC1CCO (centres unmarked),3.87%
4,CCOc1cc(N2CCOCC2)c(OCC)cc1NC(=O)C1CC(=O)N(c2ccccc2OCC)C1 (centres unmarked),-1.87%
5,O=C(CN1C(=O)C2(OCCO2)c2ccccc21)c1ccc(Br)cc1,-5.17%
6,CC(=O)c1c(N2CCOCC2)nc(=O)n(-c2ccccc2)c1C,12.6%
7,Cc1cccc(N(C)S(=O)(=O)c2c(C)noc2C)c1,4.02%
8,CS(=O)(=O)N1CCC(C(=O)N2CCN(Cc3ccccc3)CC2)CC1,17.9%
9,CCC(=O)Nc1c(C(=O)Nc2ccc3c(c2)OCCO3)oc2ccccc12,12.3%
10,CC1=C(C)CC(C(=O)Nc2cccc([N+](=O)[O-])c2)C(C(=O)O)C1 (centres unmarked),0.871%
11,O=c1c(Cl)c(N2CCN(S(=O)(=O)c3ccc(F)cc3)CC2)cnn1-c1cccc(Cl)c1,1.66%
12,COC(=O)CN1C(=O)S/C(=C/c2cc(C)n(C)c2C)C1=O,-3.31%
13,CN1C(=O)N(C)C(=O)C2(Cc3cc(NC(=O)c4ccccc4)ccc3N3CCCC32)C1=O (centres unmarked),23.3%
14,CC(=O)c1cccc(NC(=O)CC2S/C(=N/N=C/c3cccs3)NC2=O)c1 (centres unmarked),-3.57%
15,O=c1[nH]c(=O)n(C2C[C@H](O)[C@@H](CO)O2)cc1C(F)(F)F (some centres unmarked),14.8%
16,CCc1cccc(CC)c1NC(=O)CO/N=C(\C)c1cccs1,3.17%
17,COc1cc(/C=C2\SC(=S)N(C(C(=O)O)c3ccccc3)C2=O)cc(OC)c1OC (centres unmarked),16.5%
18,COC(=O)C1=C(O)C2(C(=O)O)CC(C(=O)OC)=C(O)C(C(=O)O)(C1)C2,12.4%
19,CC1CC1C(=O)OCC(=O)c1c(N)n(C)c(=O)n(C)c1=O (centres unmarked),2.67%
20,Cn1cc2ccc([N+](=O)[O-])cc2n1,3.32%
21,CCOC(=O)C1=C(COC(=O)[C@H](C)NS(=O)(=O)c2ccccc2F)NC(=O)NC1C (some centres unmarked),17.1%
22,Cc1c(C(=O)NCC2CCCO2)cccc1[N+](=O)[O-] (centres unmarked),13.2%

# Reference: article PMC4336329 (PLoS ONE, 2015)
